Test results: the supplement of paper PMC10338343
± gives the standard deviation. This is a selection; strong and weak results do not stand in their true shares.

tested on: MIWI (PIWIL1) piRISC loaded with piRNA #1 (30 nt); assay: pre-steady-state target cleavage rate (min^-1); MIWI and MILI are mouse PIWI proteins and EfPiwi is from a freshwater sponge; tags in brackets are library labels; higher = faster piRNA-guided slicing of the target; settings: guide: piRNA #1 5'p-UGAGGUAGUAGGUUGUAUAGUAUCCAGAGG; auxiliary factor: 500 nM mouse GTSF1
Procedure, shortened: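 Cleave-'n-Seq: 1 nM active affinity-purified piRISC with one synthetic guide and 0.1 nM transcribed, DNA-blocked target RNA library were mixed, with or without 500 nM GTSF1 partner protein, in HEPES–potassium acetate buffer at 33 °C for 0–8 or 0–960 min. Uncleaved targets were sequenced and normalised to depth and to weakly complementary targets, three trials were pooled, and k3 was capped at 0.0001 min^-1. The pre-steady-state cleavage rate was fitted […].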

Row | Sequence | pre-steady-state target cleavage rate
1 | GGAGACCAUACUAUACAUCCUUCUACCUCA | 0.273 ± 0.019
2 | GGAGUGGAUAUAUACAACCUACUACCUCA | 1.28 ± 0.072
3 | GGAGUGGAUACUAAUACAACCUACUACCUCA | 1.4 ± 0.1
4 | GGUCGUGGAUACUAUACAACCUACUACCUCA | 1.72 ± 0.093
5 | GGAGACCUAUGUAUACAACCUACUACCCA | 0.0026 ± 0.0023
6 | GGAGACGAUAUUAUACAACCUACUACCUCA | 1.75 ± 0.1
7 | GGAGACCAUUCUUUACAACCUACUACCUCA | 0.387 ± 0.059
8 | GGAGACGAUAGUAUACAACCUACUAGCUCA | 0.421 ± 0.067
9 | GGAGUCGAUACUAUACAACCUAGUACCUCA | 0.248 ± 0.028
10 | GGAGACCUUACUAUACAACCUACUACCUCU [g2:g22:cont:t1U] | 1.45 ± 0.084
11 | GGAGACCUAUGUAUACAACCUACUACCUCU [g2:g19:cont:t1U] | 0.187 ± 0.016
12 | GGAGACGCUACUAUACAACCUACUACCUCA | 1.79 ± 0.11
13 | GGAGACGAUACUACUACAACCUACUACCUCA | 1.53 ± 0.11
14 | GGACAGGUUACUAUACAACCUACUACCUCA | 1.9 ± 0.14
15 | GGUCUGGUUACUAUACUACCUACUACCUCA | 1.5 ± 0.12
16 | GGUCUGGAUACUUUACAACCUACUACCUGA | 0.356 ± 0.071
17 | GGAGACCUAUCUAUACAACGUACUACCACA | 0.113 ± 0.023
18 | GGUCUGGAUACUAUACAACGUAGUACCUCA | 0.154 ± 0.042
19 | GGAGACCUAUGAAUACAACCUCCUACCUCA | 0.00268 ± 0.0024
20 | GGAGACCUAUCUAUACAACCAACUAGCUCA | 0.0047 ± 0.0022

Row | Sequence | pre-steady-state target cleavage rate
21 | GGAGAGGAUACUAUAACAACCUACUACCUCA | 1.3 ± 0.087
22 | GGAGACCAUAGUAUACAACGUACUACCUCA | 0.179 ± 0.032
23 | GGAGACCAUACUAUACAAGCUACAACCUCA | 0.744 ± 0.052
24 | GGAGACCAUACUAUACAACCUACUACCGUCA | 0.82 ± 0.05
25 | GGAGACCUAACUAUACAACCUACUUCGUCA | 0.0946 ± 0.033
26 | GGAGACCUAUCUAUACAACCUACUAACUCA | 0.938 ± 0.061
27 | CCUCGGAUACUAUACAACCUACUACCUCA | 1.96 ± 0.13
28 | CCACUGGAUACUAUACAACCUACAACCUCA | 1.44 ± 0.093
29 | GGACUGAGAUACUAUACAACCUACUACCUCA | 1.72 ± 0.12
30 | GGAGACGAUACUAUACAACCUACUACGUCA | 0.801 ± 0.057
31 | GCUCUGGUUACUAUACAUCCUACUACCUCA | 1.72 ± 0.098
32 | GGAGACCUAUCCUAUACAACCUACUACCUCA | 1.08 ± 0.1
33 | GGACUGGAUUCUAAACAACCUACUACCUCA | 1.11 ± 0.095
34 | GGAGAGCGAUACUAUACAACCUACUACCUCA | 1.97 ± 0.11
35 | CCUCUGGAUUGUAUACAACCUACUACCUCA | 1.5 ± 0.096
36 | CCUCUGGAUAGUAUACAACCAACUACCUCA | 0.075 ± 0.0096
37 | GGAGACGAUACUAUACUACGUACUACCUCA | 0.311 ± 0.029
38 | GCUCUGGAUACUAUACAACCUACUACCGCA | 1.76 ± 0.12
39 | GGAGACCAUACUAUACAACGUACUACGUCA | 0.474 ± 0.06
40 | GGAGACGAUACUAUACAACCUACAACGUCA | 0.322 ± 0.11
